# Assay results from PubChem BioAssay AID488969 (Vanderbilt High Throughput Screening Facility, 2010).
# The full ranking holds about 110,000 compounds; the median of “z-score” is about -0.1, and the highest 2% start at about 2. The list shows a part of the results. Active and inactive are the calls of the source.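 Rule for the calls: active = z-score in the third read window above 3 or below -3; inactive = the rest.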
# Target: Metabotropic glutamate receptor 8 (Rattus norvegicus) (UniProt P70579)
# Chain of UniProt P70579 (P70579 whole entry, looked up): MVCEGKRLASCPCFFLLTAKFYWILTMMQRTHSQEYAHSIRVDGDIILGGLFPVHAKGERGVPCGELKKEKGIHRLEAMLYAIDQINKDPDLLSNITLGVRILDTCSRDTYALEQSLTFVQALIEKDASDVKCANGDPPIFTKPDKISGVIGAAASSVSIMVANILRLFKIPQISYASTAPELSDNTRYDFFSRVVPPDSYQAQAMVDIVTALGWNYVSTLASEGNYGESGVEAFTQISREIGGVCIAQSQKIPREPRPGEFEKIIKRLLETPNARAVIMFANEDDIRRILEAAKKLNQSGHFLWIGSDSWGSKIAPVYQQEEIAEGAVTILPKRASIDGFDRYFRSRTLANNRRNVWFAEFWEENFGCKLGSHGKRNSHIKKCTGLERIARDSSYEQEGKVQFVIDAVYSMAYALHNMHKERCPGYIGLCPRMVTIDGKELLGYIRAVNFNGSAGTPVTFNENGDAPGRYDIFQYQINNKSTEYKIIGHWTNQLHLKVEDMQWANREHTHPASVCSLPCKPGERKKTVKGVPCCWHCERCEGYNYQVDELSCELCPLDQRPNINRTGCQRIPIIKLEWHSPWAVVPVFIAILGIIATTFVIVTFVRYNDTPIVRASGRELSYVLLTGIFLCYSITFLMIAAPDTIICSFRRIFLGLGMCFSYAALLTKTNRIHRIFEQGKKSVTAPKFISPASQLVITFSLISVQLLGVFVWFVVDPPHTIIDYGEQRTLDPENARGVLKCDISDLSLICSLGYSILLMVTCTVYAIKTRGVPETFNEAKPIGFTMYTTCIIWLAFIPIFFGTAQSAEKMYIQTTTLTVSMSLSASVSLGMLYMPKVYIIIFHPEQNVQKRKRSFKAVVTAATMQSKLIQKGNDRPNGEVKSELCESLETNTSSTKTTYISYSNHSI
# Experiment: mGluR8 Gi/Go-coupled signaling modulation – cell-based, rat, thallium flux, HTS, primary screen (AID 488969)
# Conditions: HEK293 rat mGluR8, GIRK (G protein-gated inwardly rectifying potassium channel) thallium flux, FluoZin2; at 10 µM; stronger effect = higher value; submaximal glutamate (EC20) added with thallium
row,SMILES,z-score
1,COc1cccc(-c2cc(C(=O)Nc3cnn(Cc4ccccc4C)c3)no2)c1,0.0739
2,CNS(=O)(=O)c1cccc(C(=O)OCC(=O)N2CCc3ccccc3C2)c1,0.0659
3,CCOC(=O)C(C)Oc1cccc2c(=O)n(CC(=O)Nc3ccc(OCC)cc3)ccc12 (stereo not drawn),-0.623
4,COc1cc(-n2c(=O)c3ccccc3n(Cc3cccnc3)c2=O)cc(OC)c1OC,-0.352
5,COCCn1c(-c2ccco2)csc1=Nc1cccnc1,-0.463
6,CCN(C(=O)c1cccs1)c1nnc(-c2ccncc2)s1,0.485
7,COc1cccc(-n2c(=O)c3cc(OC)c(OC)cc3n(CC(=O)Nc3cc(C)[nH]n3)c2=O)c1,-0.124
8,Cc1ccc(C(NC(=O)N2CCOCC2)=C(Cl)Cl)cc1F,-0.011
9,Cc1ccc(C(=O)Cn2nnc3ccccc32)cc1C,-0.123
10,CSc1nc2sc3c(c2c(=O)[nH]1)CCCC3,-0.148
11,N#C/C(=C(/O)CN1CCCCC1)c1nc(-c2ccc(Cl)cc2)cs1,-0.201
12,O=C(NNc1cccc(Cl)n1)c1ccc(Cl)cc1Cl,0.0197
13,c1cn2c(NC3CCCC3)c(-c3ccc(N4CCOCC4)cc3)nc2cn1,-0.0312
14,COc1ccc(/C=N/NS(=O)(=O)c2ccc(C)cc2)cc1OC(=O)c1ccc(C)cc1,-0.266
15,COc1cc(CO)cc(-c2cc(CO)cc(OC)c2OC)c1OC,0.0452
16,CCOC(=O)c1[nH]c(C)c(/C(O)=C2\C(=O)C(=O)N(CCN3CCOCC3)C2c2cccs2)c1C (stereo not drawn),-0.0843
17,Cc1cc(C)n2nc(SCC#N)nc2n1,0.677
18,CCNC(=S)N/N=C/c1ccc(-c2ccccc2)o1,1.09
19,COc1ccc(/C=C/C(=O)Nc2ccc(OC)cc2[N+](=O)[O-])cc1,-0.114
20,COc1ccccc1NS(=O)(=O)c1ccc(O)c(C(N)=O)c1,0.169
21,CCOC(=O)c1c(C)n(C)c2c(C)cc(O)c(OC(C)=O)c12,-0.208
22,CC(=O)c1cccc(NC(=O)CN(c2ccccc2F)S(C)(=O)=O)c1,0.542
23,CCOc1ccccc1NS(=O)(=O)c1ccc(OC)c(OC)c1,0.133
24,O=C(NC(=S)N1CCCc2ccccc21)c1ccc([N+](=O)[O-])cc1,active: 14.7
25,CCn1nc(NC(=O)c2ccccn2)c2cc3cc(C)ccc3nc21,-0.417

row,SMILES,z-score
1,Cc1nc(N)sc1C(=O)N/N=C/c1c[nH]c2ccccc12,-0.225
2,O=C(OCc1nnc(-c2ccccc2)o1)C1CCN(S(=O)(=O)c2cccs2)CC1,-1.37
3,Nc1ccc(C23CC4CC(CC(CO)(C4)C2)C3)cc1,-0.181
4,CSc1ncccc1C(=O)Nc1nc2ccc(Oc3ccccc3)cc2s1,0.375
5,COc1ccc(-c2nc3nc(C)cc(=O)n3[nH]2)cc1,0.297
6,Cc1ccc(OCC(=O)Nc2cccc3nsnc23)c(C)c1,-0.0948
7,Clc1ncnc2c1oc1ccccc12,-0.839
8,CC1CC(C)CN(CC(=O)N2CCc3[nH]c4ccccc4c3C2)C1 (stereo not drawn),1.47
9,Clc1ccc2c(c1)-c1nnc(Br)n1-c1ccccc1S2,active: -4.38
10,Cc1ccc(NC(=O)C2CCN(C(=O)c3ccccc3C)CC2)cc1,-0.23
11,Cc1ccc(/C=N/N2CCN(c3ccc(Cl)cc3)CC2)o1,0.0242
12,CCOc1ccc(C(=O)N/N=C/c2ccc(SC)cc2)cc1,-0.152
13,CC(=O)N(C(C)=O)c1ncc2c([nH]c3ccccc32)c1C#N,0.191
14,COC(=O)c1cccc(NC(=O)c2cccnc2)c1,-0.146
15,O=C(NCCN1CCOCC1)NC1(C(F)(F)F)Oc2ccc(Cl)cc2O1 (stereo not drawn),-0.113
16,O=C1COc2ccc(C(=O)CSc3nnc(Cc4cccs4)n3-c3ccccc3)cc2N1,-1.26
17,Cc1cc(OCCn2ccnc2)ccc1C(C)C,0.0872
18,Nc1nc(Nc2ccccc2)nc(NCc2ccco2)c1[N+](=O)[O-],active: 4.24
19,CCCN1C(=O)/C(=C/c2ccc(C)o2)SC1=Nc1ccc(OC)cc1,-0.136
20,CC1(C)Cc2c(sc3ncn4nc(-c5ccco5)nc4c23)CO1,-0.0471
21,CN(C)S(=O)(=O)c1ccc(NC(=O)C2CC3C=CC2C3)cc1 (stereo not drawn),-0.0958
22,O=C(COC(=O)Cn1cnc2ccccc21)Nc1ccc2c(c1)OCCO2,0.53
23,CNC(=O)/C(C#N)=c1\s/c(=C/C(=O)OC)c(=O)n1-c1ccccc1,-0.622
24,O=C(Oc1ccccc1)c1ccc2nccnc2c1,0.521
25,COc1ccc(-c2nc(-c3ccccc3)[nH]c(=O)c2C#N)cc1,-0.382

row,SMILES,z-score
1,C=CCn1c(SC2CCOC2=O)nc2sc(CC)cc2c1=O (stereo not drawn),-1.82
2,NC(=O)C1CCN(CC(=O)c2c[nH]c3ccc(F)cc23)CC1,1.14
3,O=C(c1cccc2ccccc12)n1nnc2ccccc21,0.0407
4,Nc1c(S(=O)(=O)c2ccccc2)c2nc3ccccc3nc2n1/N=C/c1ccco1,-1.22
5,O=C(NCc1nnc(SCC(=O)N2CCC(Cc3ccccc3)CC2)o1)c1ccccc1F,-0.616
6,CCOc1ccc2nc(SCc3cccc(C)c3)nc(C)c2c1,-0.0646
7,CC(C)C(=O)Nc1ncc(C(F)(F)F)cc1Cl,-0.565
8,CC1CCCC(C)N1C(=O)CSc1nnc(NC(=O)Cc2cccs2)s1 (stereo not drawn),-1.05
9,CC1CCCCN1c1nnc(NC(=O)c2cc(-c3ccc(Br)cc3)on2)s1 (stereo not drawn),-0.71
10,COc1ccc(N=C(C)C2=C(O)CSC2=O)cc1,0.00819
11,CCCN(CCC)CC(O)CN(c1ccccc1)S(=O)(=O)c1ccc(C)cc1 (stereo not drawn),0.182
12,O=c1nc(N2CCCCC2)nc(Nc2ccccc2)[nH]1,-0.386
13,COc1ccc(C(C(=O)Nc2ccc(C(C)C)cc2)N(C)C(=O)CNC(C)=O)cc1 (stereo not drawn),-0.0615
14,Nc1nnn(Cc2ccccc2)n1,0.0628
15,Cc1cccc(C(=O)Nc2ccc(NC(=O)Cc3ccc(Cl)cc3)cc2)c1,-0.0593
16,CC1CN(c2nc3ccccc3nc2C(C#N)C(=O)OC2CCCCC2)CC(C)O1 (stereo not drawn),-1.35
17,O=C(NCc1cccs1)c1cc2c(s1)CS(=O)(=O)C2,0.722
18,Cc1ccn2cc(CCNC(=O)CC(C)(C)C)nc2c1,-0.434
19,CC(NC(=O)Cc1ccc(F)cc1)C(c1cccs1)N1CCN(C)CC1 (stereo not drawn),1.17
20,CCCC(c1nnnn1CCc1ccccc1)N1CCN(C2CCCC2)CC1 (stereo not drawn),-0.168
21,Cc1cc(C)nc(SCc2nc3nc(C)cc(C)n3c2Br)n1,-0.879
22,O=C(c1cn(-c2ccccc2)nc1-c1ccc(Cl)s1)N1CCOCC1,-0.311
23,O=C(CSc1ncnc2scc(-c3ccccc3)c12)N1CCN(Cc2ccc3c(c2)OCO3)CC1,0.256
